# In publication PMC4336329 (PLoS ONE, 2015):
# The whole screen tested about 310,000 compounds, of which about 2,200 (0.71%) showed an effect of 50% or more. Effects have a minus sign here. Some of the results follow.
# Target: human ether-à-go-go-related gene (hERG) potassium channel (human, UniProt Q12809)
# Assay: primary screen, population patch clamp on CHO cells stably expressing hERG
# Chain of human ether-à-go-go-related gene (hERG) potassium channel (Q12809 whole entry, looked up): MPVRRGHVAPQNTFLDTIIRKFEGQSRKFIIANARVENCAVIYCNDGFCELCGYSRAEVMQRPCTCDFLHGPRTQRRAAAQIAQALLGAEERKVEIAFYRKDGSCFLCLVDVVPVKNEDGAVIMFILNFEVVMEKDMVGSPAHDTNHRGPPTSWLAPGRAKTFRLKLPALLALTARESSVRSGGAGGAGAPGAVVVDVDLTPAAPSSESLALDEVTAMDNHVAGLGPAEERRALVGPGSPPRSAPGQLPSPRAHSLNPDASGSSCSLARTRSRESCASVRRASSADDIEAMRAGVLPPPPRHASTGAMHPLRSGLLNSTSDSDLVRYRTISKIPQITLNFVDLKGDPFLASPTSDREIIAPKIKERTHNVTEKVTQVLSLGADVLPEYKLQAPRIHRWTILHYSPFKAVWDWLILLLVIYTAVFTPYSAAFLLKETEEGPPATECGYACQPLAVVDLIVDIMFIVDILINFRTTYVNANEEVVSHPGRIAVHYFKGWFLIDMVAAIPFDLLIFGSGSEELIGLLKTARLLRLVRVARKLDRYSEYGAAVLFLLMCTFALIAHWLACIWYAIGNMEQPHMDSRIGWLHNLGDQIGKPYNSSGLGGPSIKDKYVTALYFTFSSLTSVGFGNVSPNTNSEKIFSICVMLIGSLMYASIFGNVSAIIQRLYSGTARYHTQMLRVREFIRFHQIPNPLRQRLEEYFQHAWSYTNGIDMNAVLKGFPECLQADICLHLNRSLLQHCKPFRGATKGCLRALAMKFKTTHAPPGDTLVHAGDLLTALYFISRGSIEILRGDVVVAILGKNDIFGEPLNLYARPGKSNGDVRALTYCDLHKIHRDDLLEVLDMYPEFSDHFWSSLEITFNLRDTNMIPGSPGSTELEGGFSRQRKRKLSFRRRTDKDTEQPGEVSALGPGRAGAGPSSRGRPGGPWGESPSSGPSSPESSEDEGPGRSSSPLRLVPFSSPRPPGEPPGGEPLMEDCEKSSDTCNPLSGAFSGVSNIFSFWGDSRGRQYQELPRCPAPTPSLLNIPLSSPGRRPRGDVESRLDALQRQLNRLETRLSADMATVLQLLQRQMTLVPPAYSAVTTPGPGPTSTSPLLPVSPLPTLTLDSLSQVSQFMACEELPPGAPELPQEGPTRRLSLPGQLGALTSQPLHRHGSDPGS
row,Structure (SMILES),"hERG current change (%, negative = inhibition) at 1uM [%]"
1,N#CCCn1nnc(-c2ccccc2F)n1,23
2,CCOc1cc2[nH]c(=O)n(Cc3cccc(OC)c3)c(=O)c2cc1OCC,6.96
3,CN(C)c1ccc(/C=N/OC(=O)Nc2ccccc2Cl)cc1,-5.54
4,O=C(NCC1CCCO1)c1ccc(NS(=O)(=O)c2ccccc2)cc1 (stereo not drawn),14.8
5,CCCCc1nc(Cl)c(C#N)c2c1CSC(C)(C)C2,3.02
6,O=c1c2ccccc2c(-c2ccccc2)nn1-c1ccccc1,12.3
7,CCc1nn(C(C)C(=O)NCc2cccc(Cl)c2)c(=O)c2cc3occc3n12 (stereo not drawn),4.62
8,O=C(C[C@H]1C(=O)N(Cc2ccccc2)C[C@@H]1Cc1ccccc1)Nc1ccccc1,9.99
9,CCOC(=O)C1CCN(C(=O)c2cccc(S(=O)(=O)N(C)C3CCCCC3)c2)CC1,-0.558
10,O=C(Nc1cccc(Cl)c1)c1nc[nH]c1C(=O)N1CCN(c2ccccc2)CC1,8.23
11,CCOP(=O)(c1ccc(N(C)C)cc1)C(O)c1cc(OC)c(OC)c(OC)c1 (stereo not drawn),2.97
12,Cc1ccccc1NC(=O)Cc1nc(COC(=O)CCC(=O)c2ccccc2)cs1,5.39
13,COc1c(/C=N/NS(=O)(=O)c2ccc(C)cc2)c(CCN(C)C(C)=O)cc2c1OCO2,0.0332
14,Cc1cccc(-c2nnc(SCC(=O)C(C)(C)C)n2C)c1,1.99
15,Cc1ncc(CO)c(/C=N/NC(=O)c2ccc(Br)cc2)c1O,3.37
16,CCCCn1c(N)c(N(CCOC)C(=O)c2cc(=O)[nH]c3ccccc23)c(=O)[nH]c1=O,5.99
17,CCCn1cnc2c(c1=O)c1nc3ccccc3nc1n2CCc1ccccc1,9.14
18,Cl.O=C(c1ccco1)N1CCN(C(c2ccc(F)cc2)c2nnnn2Cc2cccs2)CC1 (stereo not drawn),-14.9
19,CC(=O)NCCNS(=O)(=O)c1ccc(C)c([N+](=O)[O-])c1,10.6

row,Structure (SMILES),"hERG current change (%, negative = inhibition) at 1uM [%]"
1,COc1cc(OC)c(C(=O)CCC(=O)O)cc1OC,-2.05
2,CN1C2CCC1CC(OC(c1ccccc1)c1ccccc1N)C2 (stereo not drawn),-39.2
3,Cc1cc(C)c(C(=O)OCC(=O)NCc2cccs2)c(C)c1,5.28
4,COc1ccc(CC(=O)Nc2cccc(-c3csc(C)n3)c2)cc1,4.49
5,COc1cccc(NC(=O)Cn2c(CCC(=O)O)ccc2-c2cccs2)c1,11
6,O=S(=O)(c1ccccc1)N1CCNCC1,10.4
7,CC1Cc2ccccc2N1CC(=O)NC(=O)NC1CCCC1 (stereo not drawn),-1.62
8,CCCCN(CC)CCNC(=O)c1ccc2c(Cl)c3c(nc2c1)CCC3,5.61
9,O=C(NCCN1CCOCC1)c1cc(Cl)ccc1[N+](=O)[O-],14.6
10,COc1ccc(NC(=O)c2cn3c(nc4ccccc43)c(C#N)c2C)cc1,4.96
11,O=C1CC(/C=C/c2ccccc2)=Nc2ccccc2N1,6.2
12,O=C(COc1ccccc1Cl)c1ccc2c(c1)CCCC2,5.2
13,O=C(N/N=C\c1cc(Br)ccc1O)c1ccc(S(=O)(=O)N2CCCCC2)cc1,15.6
14,O=C(Nc1ccccc1)c1ccc(F)cc1F,8.41
15,CC(=O)O[C@H]1C[C@@H]2CC[C@@H]3[C@H](CC[C@@]4(C)[C@H]3C[C@H]([N+]3(C)CCCCC3)[C@@H]4OC(C)=O)[C@@]2(C)C[C@@H]1N1CCCCC1.[Br-],20.4
16,O=C(C[N+]12CCN(CC1)CC2)NCCc1ccc(Cl)cc1Cl.[Cl-],17.3
17,COCCCNC(=O)C(=O)Nc1ccc2c(c1)N(S(=O)(=O)c1cccs1)CCC2,10.1
18,CC(C)(C)NC(=O)CN(C(=O)CNS(=O)(=O)c1ccc(Cl)cc1)c1ccc2c(c1)OCCO2,4.44
19,CC1(C)NC(=O)N(CCOc2cccc(Cl)c2Cl)C1=O,5.11

row,Structure (SMILES),"hERG current change (%, negative = inhibition) at 1uM [%]"
1,CC(=O)c1sc2nsc(SCCN3CCCC3)c2c1N,12
2,O=C(CNS(=O)(=O)c1cccs1)Nc1ccc2c(c1)OCCO2,15.2
3,C(=N\Nc1nc2ccccc2[nH]1)/c1ccc2ncccc2c1,10.8
4,CCn1cc(CNC(=O)c2ccc(C)s2)cn1,7.72
5,Cc1nn(-c2ccccc2)c(Cl)c1C(=O)Nc1ccccc1,7.05
6,c1ccc(-n2nnnc2-n2nnc3ccccc32)cc1,10.4
7,CCOC(=O)c1[nH]c2ccc(OC)cc2c1NC(=O)c1cccc(OC)c1,3.45
8,CC(=O)NS(=O)(=O)c1ccc(NC(=O)c2cc(-c3ccc(C)cc3)nc3ccccc23)cc1,5.15
9,O=C1CC(=O)N(Cc2ccco2)C(=O)N1,-3.52
10,C/C(=N\NC(=O)c1ccccc1)c1ccc(NC(=O)c2cccs2)cc1,-2.08
11,COCC(=O)N(Cc1cc2ccc(C)cc2[nH]c1=O)c1cccc(C)c1,11.9
12,CN(C)S(=O)(=O)c1cccc(-c2nnc(SCc3ccc4c(c3)OCCO4)o2)c1,-0.0123
13,CN(C)CCC(=O)c1ccc(F)cc1.Cl,5.98
14,Cc1ccc(-n2c(SCC(=O)OC(C)C)nnc2-c2ccco2)cc1,-2.47
15,CN(C)S(=O)(=O)c1ccc(C(=O)OCC(=O)c2ccc3c(c2)NC(=O)CO3)cc1,9.19
16,Nc1nonc1-c1noc(N2CCCCC2)n1,13.4
17,COC(=O)C(O)(c1ccc(NC(=O)NC2CCCCC2)cc1)C(F)(F)F (stereo not drawn),9.14
18,Cc1ccc(-c2c(C)n([O-])c3c([n+]2=O)CCCCC3)cc1,16.8
19,COc1ccc(CCC(=O)NCCc2ccc(Cl)cc2)cc1,6.2
